# In PubChem BioAssay AID886 (National Center for Advancing Translational Sciences (NCATS), 2007):
# Where “and” joins values, the source holds several entries; their conditions need not be identical. Identical values can stand only once. About 2,500 (3.4%) of roughly 73,000 compounds were called active. Inconclusive means that the source gave no clear call. Such entries were picked first, then a sample of the others. The call rests on the fitted dose curve; in most records, active means well fitted inhibition curve with a large enough effect; inconclusive means small, poorly fitted or top-dose-only effect; inactive means no such curve, though single readings can be large or run the other way. Where the call is inconclusive, the potency comes from a doubtful curve fit. Some structures have more than one record in an assay (separate samples or runs), and their calls can disagree.
# Target: 3-hydroxyacyl-CoA dehydrogenase type-2 (Homo sapiens) (UniProt Q99714)
# Test: qHTS Assay for Inhibitors of HADH2 (Hydroxyacyl-Coenzyme A Dehydrogenase, Type II); further: nearly all actives have a fitted effect of over 60% in size
# Settings: recombinant HADH2, NADH fluorescence, beta-hydroxybutyryl-CoA; activity change, negative = inhibition: at 57.1 µM (top of the series)
# In short: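 NADH fluorescence (ex 360/em 450 nm) read every 30 s for 4 min; activity taken as last-minus-first time point difference. Enzyme 20 nM, NAD+ 1 mM, beta-hydroxybutyryl-CoA 90 uM, pH 9.0 Tris buffer.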
# On the % scale 0 is the no-effect control and ±100 the full control effect; potency means the concentration at half of the fitted maximal effect; tags describe the fitted curve by direction and shape.
# UniProt Q99714, sequence (Q99714 whole entry, looked up): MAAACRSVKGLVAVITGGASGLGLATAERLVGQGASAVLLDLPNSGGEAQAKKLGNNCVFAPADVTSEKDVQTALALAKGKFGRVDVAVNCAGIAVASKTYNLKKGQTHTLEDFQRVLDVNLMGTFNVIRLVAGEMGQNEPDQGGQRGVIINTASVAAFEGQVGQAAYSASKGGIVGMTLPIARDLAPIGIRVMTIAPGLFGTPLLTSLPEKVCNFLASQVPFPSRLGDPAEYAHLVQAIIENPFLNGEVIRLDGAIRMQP
# UniProt Q99714, sequence (Q99714 whole entry, looked up): as above
SMILES,Potency,"activity change, negative = inhibition"
CC(C)Nc1nc(-c2ccccc2)nc(-n2ccnc2)n1,"inconclusive: 7.94 µM [inhibitor, single point]",–
O=C(/C=C\c1ccc(O)c(O)c1)O[C@H]1C[C@@](O)(C(=O)O)C[C@H](O)[C@@H]1O,active: 2 µM,–
COC(=O)CSC1=NS(=O)(=O)c2ccccc21,active: 20 µM,–
Cc1cc(NCCN2CCOCC2)n2ncc(-c3ccc(Cl)cc3)c2n1,inactive,–
CCC(=Nc1ccc(N)cc1)C1=C(O)C(C(=O)OC)C(C)(C)CC1=O (stereo unspecified),"inconclusive: 0.794 µM [inhibitor, full curve]",–
CCCC(c1cc(C(C)(C)C)c(O)cc1C)c1cc(C(C)(C)C)c(O)cc1C,–,inactive: 8.89% [at 11.4 µM]
Cc1cc(-c2ccco2)n(-c2ccccc2)n1,"inconclusive: 25.1 µM [inhibitor, single point]",–
O=C(Cc1coc(-c2ccc(F)cc2)n1)N1CCOCC1,inactive,–
CC(=O)Nc1ccc(-c2nc3c(C)cccc3[nH]2)cc1,active: 31.6 µM,–
COc1ccc(C[C@@](C)(N)C(=O)O)cc1OC,"inconclusive: 0.0631 µM [inhibitor, full curve]",–
O=C(NCc1ccco1)c1sc(=S)n2c1[nH]c(=O)c1ccccc12,active: 15.8 µM,–
NC(=O)c1sc2nc3c(c(-c4cccs4)c2c1N)CCCC3,inactive,–
Cc1cc(NC(=O)COC(=O)COc2ccc3c(c2)CCC3)no1,inactive,–
Cc1ccc2nc(-c3ccc(SCC(=O)O)nc3)[nH]c2c1,"inconclusive: 31.6 µM [inhibitor, single point]",–
C=CCNc1oc(-c2cccc3ccccc23)nc1C#N,active: 31.6 µM,–
CCCCCCCC#Cc1ccccc1/C=N/S(=O)c1ccc(C)cc1 (stereo unspecified),"inconclusive: 3.98 µM [inhibitor, single point]",–
CCC(C)n1c(-c2cccs2)nc2nc3ccccc3nc21 (stereo unspecified),active: 31.6 µM,–
COc1ccc(S(=O)(=O)N2CCSC2c2ccc(OC)c(OC)c2)cc1 (stereo unspecified),inactive,–
CCOc1ccc2nc(SCC(=O)N(C)C3CCS(=O)(=O)C3)[nH]c2c1 (stereo unspecified),"inconclusive: 39.8 µM [inhibitor, single point]",–
CCOC(=O)CSc1nc2c(c(-c3ccc(C)o3)c1C#N)CCCC2,"inconclusive: 39.8 µM [inhibitor, single point]",–
COc1cccc(-n2c(SCC(=O)Nc3cc(C)on3)nc3c([nH]c4ccccc43)c2=O)c1,"inconclusive: 39.8 µM [inhibitor, single point]",–
Cc1cc(C)nc(SCc2ccc3nonc3c2)n1,"inconclusive: 15.8 µM [inhibitor, single point]",–
N#Cc1cc2c(nc1SCc1cccnc1)CCCCC2,inactive,–
CCOC(=O)C1CCN(C(c2cccs2)c2sc3nc(C)nn3c2O)CC1 (stereo unspecified),inactive,–

SMILES,Potency,"activity change, negative = inhibition"
CC(C)CO/N=C1/C[C@@H](O)[C@@H](O)[C@@H]2[C@@H]3C(=O)N(C[C@@H]4CCCO4)C(=O)[C@H]3CC[C@H]12,"inconclusive: 7.94 µM [inhibitor, single point]",–
CCOc1ccc(S(=O)(=O)Nc2ccccc2C(=O)NCc2ccco2)cc1,"inconclusive: 39.8 µM [inhibitor, single point]",–
O=C(Nc1ccc(O)cc1)C1CC=CCC1 (stereo unspecified),"inconclusive: 31.6 µM [inhibitor, single point]",–
CC(C)N(CCC(=O)c1ccc2ccccc2c1)Cc1ccccc1,"inconclusive: 2.51 µM [inhibitor, full curve] and inconclusive: 20 µM [inhibitor, partial curve, poor fit]",–
COc1ccc(C2CC(=O)Nc3ccccc3S2(=O)=O)cc1OC (stereo unspecified),"inconclusive: 25.1 µM [inhibitor, partial curve]",–
O=C(NCCCO)c1ccc2[nH]c3ccccc3c2c1,"inconclusive: 39.8 µM [inhibitor, single point]",–
O=C(Nc1ccc2oc(-c3ccccc3F)nc2c1)c1ccc2c(c1)OCCO2,"inconclusive: 39.8 µM [inhibitor, single point]",–
Cc1cccc(-n2ncc3c(NCc4ccccc4)ncnc32)c1,"inconclusive: 39.8 µM [inhibitor, single point]",–
CC(=O)Oc1c2occc2cc2ccc(=O)oc12,"inconclusive: 31.6 µM [inhibitor, single point]",–
COC(=O)Nc1nnc(-c2ccccc2Cl)s1,active: 31.6 µM,–
CCOC(=O)c1cc2c(=O)n3ccccc3nc2n(CC2CCCO2)c1=NC(C)=O (stereo unspecified),"inconclusive: 39.8 µM [inhibitor, single point]",–
COC(=O)c1cc(-c2cccc(OC)c2)n[nH]1,inactive,–
O=S(=O)(Nc1nc2ccccc2s1)c1ccc(Br)s1,inactive,–
CCC(=O)N1CCc2cc(Br)cc(S(=O)(=O)CC(=O)OC)c21,"inconclusive: 25.1 µM [inhibitor, partial curve]",–
O=C1C=CC(=Nc2cccc3c(N=C4C=CC(=O)O4)cccc23)O1,"inconclusive: 1.58 µM [inhibitor, partial curve]",–
CCCn1c(SCC(=O)N2CCN(c3ccccc3)CC2)nc2ccccc2c1=O,"inconclusive: 6.31 µM [inhibitor, single point]",–
O=C1CCCC/C1=C\Nc1ccc(O)cc1,"inconclusive: 12.6 µM [inhibitor, partial curve]",–
CCOCCc1nnc(NC(=O)COC)s1,inactive,–
O=C(c1cc2nc(C3CC3)cc(C(F)F)n2n1)N1CCOCC1,"inconclusive: 31.6 µM [inhibitor, single point]",–
Cc1cc(Br)ccc1SCC(=O)OCC(=O)N1CCN(C(=O)c2ccco2)CC1,"inconclusive: 25.1 µM [inhibitor, single point]",–
CCCc1cc(=O)oc2cc(OCC(=O)N(C)C)c(Cl)cc12,"inconclusive: 39.8 µM [inhibitor, single point]",–
COCC(COCCCNC(=O)Nc1ccc(Br)cc1)OC (stereo unspecified),inactive,–
COc1ccc(Cc2nnc(NC(=O)Cc3cccs3)s2)cc1,"inconclusive: 31.6 µM [inhibitor, single point]",–
Cc1c(C)c2cc(Cl)c(OCc3nn[nH]n3)cc2oc1=O,active: 25.1 µM,–

SMILES,Potency,"activity change, negative = inhibition"
O=c1nc2n(c3c1oc1ccccc13)Cc1ccccc1-2,"inconclusive: 31.6 µM [inhibitor, single point]",–
COC(=O)C1=C(C)N(Cc2ccccc2)C2=C(C(C)=O)C(c3ccccc3)[C@@](O)(C(=O)OC)C(=O)N2C1c1ccccc1 (stereo partly specified),active: 3.16 µM,–
CCc1ccc(NC(=O)Nc2cccs2)cc1,"inconclusive: 31.6 µM [inhibitor, single point]",–
C[C@@H]1OC2C3=C(C(=O)[C@H]4O[C@@H]4[C@H]3O)[C@@H]1[C@H]1[C@H](C)OC=C3[C@H](O)[C@H]4O[C@H]4/C(=N\OCc4ccccc4)[C@@]321,"inconclusive: 3.98 µM [inhibitor, single point]",–
O=C(C1CCCN(S(=O)(=O)c2cccc3cccnc23)C1)N1CCN(c2ccccc2F)CC1 (stereo unspecified),inactive,–
CCOC(=O)C1CCN(c2cc(C)nc3cc(-c4cccc(F)c4)nn23)CC1,"inconclusive: 39.8 µM [inhibitor, single point]",–
CCOC(=O)c1sc(NC(=O)CSc2n[nH]c(-c3ccccc3)n2)c(C#N)c1C,active: 0.794 µM,–
COC(=O)C1(C)NC(=O)c2ccccc2N1 (stereo unspecified),"inconclusive: 25.1 µM [inhibitor, single point]",–
COC(=O)c1cc(Br)ccc1-c1ccc(/C=N/n2nnnc2N)o1,"inconclusive: 3.98 µM [inhibitor, single point]",–
N#Cc1nc(-c2ccco2)oc1NCCCN1CCOCC1,active: 31.6 µM,–
Cc1nc(N=Nc2ccc(S(=O)(=O)O)cc2S(=O)(=O)O)c(COP(=O)(O)O)c(C=O)c1O,inactive,–
CC(C)CNS(=O)(=O)c1ccc(CCC(=O)NCc2ccco2)cc1,"inconclusive: 39.8 µM [inhibitor, single point]",–
N#Cc1cc2c(nc1SCC(=O)N1CCCCC1)CCCCC2,"inconclusive: 12.6 µM [inhibitor, partial curve]",–
COc1ccc(N(C(=O)COc2ccccc2)C2C=CS(=O)(=O)C2)c(OC)c1 (stereo unspecified),"inconclusive: 0.316 µM [inhibitor, full curve, poor fit]",–
CCOc1nc(-c2ccc(C)cc2)ccc1-c1noc(-c2cccnc2)n1,"inconclusive: 3.98 µM [inhibitor, single point]",–
CSc1c(C#N)c(N)c(C#N)c2c1COC(C)(C)C2,"inconclusive: 39.8 µM [inhibitor, single point]",–
O=c1cc(-c2cccc(O)c2)oc2c(O)c(O)ccc12,active: 5.01 µM,–
CCOC(=O)N1CCC(Nc2ncnc3c2cnn3-c2ccc(Cl)cc2)CC1,"inconclusive: 25.1 µM [inhibitor, single point]",–
COc1cccc(S(=O)(=O)NCc2ccc(C(=O)NCc3ccco3)cc2)c1,"inconclusive: 12.6 µM [inhibitor, partial curve]",–
CCN1/C(=C/C(C)=O)Sc2ccc(OC)cc21,"inconclusive: 31.6 µM [inhibitor, single point]",–
CCC(c1nnnn1Cc1ccco1)N(Cc1cc2cc(OC)ccc2[nH]c1=O)C1CCCCC1 (stereo unspecified),"inconclusive: 39.8 µM [inhibitor, single point]",–
Cc1noc(/C=C/c2ccco2)c1S(=O)(=O)N1CCC(C(=O)N2CCc3ccccc3C2)CC1,"inconclusive: 31.6 µM [inhibitor, single point]",–
CNS(=O)(=O)c1ccccc1C(=N)c1ccccc1,–,inactive: 22% [at 11.4 µM]
